Scores whose standard error is large were omitted. The source holds two more conditions with little spread; they are left out. Names with del lack the residues named; names with ins carry added residues between the positions named. For some of these results: The data file names ogerin without a concentration.
B1: GPR68, Q15743 (parent)
chain: MGNITADNSSMSCTIDHTIHQTLAPVVYVTVLVVGFPANCLSLYFGYLQIKARNELGVYLCNLTVADLFYICSLPFWLQYVLQHDNWSHGDLSCQVCGILLYENIYISVGFLCCISVDRYLAVAHPFRFHQFRTLKAAVGVSVVIWAKELLTSIYFLMHEEVIEDENQHRVCFEHYPIQAWQRAINYYRFLVGFLFPICLLLASYQGILRAVRRSHGTQKSRKDQIQRLVLSTVVIFLACFLPYHVLLLVRSVWEASCDFAKGVFNAYHFSLLLTSFNCVADPVLYCFVSETTHRDLARLRGACLAFLTCSRTGRAREAYPLGAPEASGKSGAQGEEPELLTKLHPAFQTPNSPGSGGFPTGRLA

What was measured:
[1] = variants of: B1; experiment: cAMP reporter score (Enrich2 score, wild type = 0); higher = more signal; HEK293T, FACS bins
[2] = variants of: B1; experiment: surface expression score (Enrich2 score, wild type = 0); higher = more signal; HEK293T, FACS bins

Row | Variant | cAMP reporter score ([1]; pH 5.5) | cAMP reporter score ([1]; pH 6) | cAMP reporter score ([1]; pH 6, modulator: ogerin) | cAMP reporter score ([1]; pH 6.5, modulator: ogerin) | surface expression score [2]
1 | MGNITADNSSMSCTIDHTIHQTLAPVVYVTVLVVGFPANCLSLYFGYLQIKARNELGVYLCNLTVADLFYICSLPFWLQYVLQHDNWSHGDLSCQVCGILLYENIYISVGFLCCISVDRYLAVAHPFRFHQFRTLKAAVGVSVVIWAKELLTSIYFLMHEEVIEDENQHRVCFEHYPIQAWQRAINYYRFLVEFLFPICLLLASYQGILRAVRRSHGTQKSRKDQIQRLVLSTVVIFLACFLPYHVLLLVRSVWEASCDFAKGVFNAYHFSLLLTSFNCVADPVLYCFVSETTHRDLARLRGACLAFLTCSRTGRAREAYPLGAPEASGKSGAQGEEPELLTKLHPAFQTPNSPGSGGFPTGRLA [G193E] | -0.585 | -0.56 | -0.735 | -0.708 | -0.483
2 | MGNITADNSSMSCTIDHTIHQTLAPVVYVTVLVVGFPANCLSLYFGYLQIKARNELGVYLCNLTVADLFYICSLPFWLQYVLQHDNWSHGDLSCQVCGILLYENIYISVGFLCCISVDRYLAVAHPFRFHQFRTLKAAVGVSVVIWAKELLTSIYFLMHEEVIEDENQHRVCFEHYPIQAWQRAINYYRFLVFFLFPICLLLASYQGILRAVRRSHGTQKSRKDQIQRLVLSTVVIFLACFLPYHVLLLVRSVWEASCDFAKGVFNAYHFSLLLTSFNCVADPVLYCFVSETTHRDLARLRGACLAFLTCSRTGRAREAYPLGAPEASGKSGAQGEEPELLTKLHPAFQTPNSPGSGGFPTGRLA [G193F] | -0.975 | -0.441 |  | -0.733 | -1.59
3 | MGNITADNSSMSCTIDHTIHQTLAPVVYVTVLVVGFPANCLSLYFGYLQIKARNELGVYLCNLTVADLFYICSLPFWLQYVLQHDNWSHGDLSCQVCGILLYENIYISVGFLCCISVDRYLAVAHPFRFHQFRTLKAAVGVSVVIWAKELLTSIYFLMHEEVIEDENQHRVCFEHYPIQAWQRAINYYRFLVHFLFPICLLLASYQGILRAVRRSHGTQKSRKDQIQRLVLSTVVIFLACFLPYHVLLLVRSVWEASCDFAKGVFNAYHFSLLLTSFNCVADPVLYCFVSETTHRDLARLRGACLAFLTCSRTGRAREAYPLGAPEASGKSGAQGEEPELLTKLHPAFQTPNSPGSGGFPTGRLA [G193H] | -0.322 | -0.832 | -1.65 | -1.79 | -3.54
4 | MGNITADNSSMSCTIDHTIHQTLAPVVYVTVLVVGFPANCLSLYFGYLQIKARNELGVYLCNLTVADLFYICSLPFWLQYVLQHDNWSHGDLSCQVCGILLYENIYISVGFLCCISVDRYLAVAHPFRFHQFRTLKAAVGVSVVIWAKELLTSIYFLMHEEVIEDENQHRVCFEHYPIQAWQRAINYYRFLVIFLFPICLLLASYQGILRAVRRSHGTQKSRKDQIQRLVLSTVVIFLACFLPYHVLLLVRSVWEASCDFAKGVFNAYHFSLLLTSFNCVADPVLYCFVSETTHRDLARLRGACLAFLTCSRTGRAREAYPLGAPEASGKSGAQGEEPELLTKLHPAFQTPNSPGSGGFPTGRLA [G193I] | -1.73 | -1.09 | -1.72 | -0.776 | -1.76

From the GPR68 mutational scans of Howard et al. (2025)
